Measurements from publication PMC4336329 (PLoS ONE, 2015).
The whole screen tested about 310,000 compounds, of which about 14,000 (4.5%) showed an effect of 50% or more. Effects have a minus sign here. Some of the results follow.

Each molecule was assayed against human ether-à-go-go-related gene (hERG) potassium channel (human, UniProt Q12809) (assay: primary screen, population patch clamp on CHO cells stably expressing hERG).
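Also: peak tail current of the secondary pulse compared with the same well before compound.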

human ether-à-go-go-related gene (hERG) potassium channel, sequence (Q12809 whole entry, looked up): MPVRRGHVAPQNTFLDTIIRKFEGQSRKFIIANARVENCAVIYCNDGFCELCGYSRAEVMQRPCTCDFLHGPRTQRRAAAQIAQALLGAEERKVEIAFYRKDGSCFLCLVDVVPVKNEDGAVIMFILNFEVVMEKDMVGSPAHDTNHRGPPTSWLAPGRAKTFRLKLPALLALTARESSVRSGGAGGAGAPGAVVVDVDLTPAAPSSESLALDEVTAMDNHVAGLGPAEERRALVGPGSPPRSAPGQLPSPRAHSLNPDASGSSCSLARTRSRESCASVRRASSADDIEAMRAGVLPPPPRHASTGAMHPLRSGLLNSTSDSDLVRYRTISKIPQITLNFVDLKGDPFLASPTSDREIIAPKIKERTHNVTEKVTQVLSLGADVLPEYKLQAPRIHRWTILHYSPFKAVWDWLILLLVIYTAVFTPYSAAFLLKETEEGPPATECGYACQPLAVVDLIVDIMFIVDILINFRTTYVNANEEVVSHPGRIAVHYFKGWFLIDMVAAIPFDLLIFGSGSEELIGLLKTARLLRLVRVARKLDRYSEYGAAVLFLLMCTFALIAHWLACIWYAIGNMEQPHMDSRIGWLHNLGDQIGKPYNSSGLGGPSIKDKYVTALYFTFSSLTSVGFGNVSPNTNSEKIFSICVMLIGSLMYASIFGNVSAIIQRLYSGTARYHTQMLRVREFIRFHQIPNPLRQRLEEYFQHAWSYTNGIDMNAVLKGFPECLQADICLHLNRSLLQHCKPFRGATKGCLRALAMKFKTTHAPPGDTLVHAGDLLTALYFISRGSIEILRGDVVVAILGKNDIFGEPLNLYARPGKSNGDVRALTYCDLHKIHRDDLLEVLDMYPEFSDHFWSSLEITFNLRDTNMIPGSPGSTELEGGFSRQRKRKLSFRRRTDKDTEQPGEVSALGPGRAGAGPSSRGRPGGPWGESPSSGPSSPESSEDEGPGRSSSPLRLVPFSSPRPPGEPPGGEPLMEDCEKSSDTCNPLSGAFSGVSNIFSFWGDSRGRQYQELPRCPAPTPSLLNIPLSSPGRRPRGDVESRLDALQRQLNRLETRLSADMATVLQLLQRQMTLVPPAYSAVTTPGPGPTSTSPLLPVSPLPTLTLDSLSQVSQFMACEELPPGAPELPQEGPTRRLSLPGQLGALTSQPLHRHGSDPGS

Structure (SMILES)	hERG current change (%, negative = inhibition) at 10uM [%]
O=C(CSc1nc(=O)n(CCCN2CCOCC2)c2c1CCCC2)Nc1cccc([N+](=O)[O-])c1	-67.7
CCCc1nnc(NC(=O)Cn2c(=O)oc3cc(Br)ccc32)s1	-1.07
O=C(Nc1nc2ccccc2s1)c1ccc(OCC2CCCO2)cc1 (centres unmarked)	-5.77
COc1ccc(-c2c([C@H]3[C@@H]4C=CCC[C@@]4(C)C(=O)N3Cc3ccccc3)ccc3ccccc23)cc1OC	10.8
CCC(C)[C@H](NC(=O)C1(c2ccccc2)CCN(C(=O)OC(C)(C)C)CC1)C(=O)N[C@@H](C(=O)O)c1ccccc1 (some centres unmarked)	8.38
O=C(CN1CCN(c2ccccc2O)CC1)Nc1ccc([N+](=O)[O-])cc1Br	-6.3
CC(C)(C)NC(=O)C(Cc1ccccc1)NS(=O)(=O)c1ccc2c(c1)CCC(=O)N2 (centres unmarked)	-9.81
CCN(CC(=O)NC(C)(C)C)C(=O)c1ccc(Br)cc1	2.64
CCOC(=O)C1CCCN(C(=O)N2CCOCC2)C1 (centres unmarked)	8.84
Cc1cc(C(=O)NCc2ccco2)cs1	7.33
Cc1cc(C)cc(NC(=S)N(Cc2ccc(Cl)cc2)Cc2ccc(C(=O)O)cc2)c1	9.95
CC(C)CC(=O)N1CC(C)N(C(=O)CC(C)C)CC1C (centres unmarked)	-11
COc1ncnc(OC)c1S(=O)(=O)NCc1ccccc1	16.8
CC(=O)n1cc([C@H]2C=C(C(=O)NCc3ccccc3)O[C@@H](OCCCCO)C2)c2ccccc21	-62
N#C/C(=C\c1ccc(-c2ccc([N+](=O)[O-])cc2Br)o1)C(=O)N1CCN(c2ccccc2)CC1	19.8
O=S([O-])OC1CS(=O)(=O)CC1c1ccccc1.[Na+] (centres unmarked)	17.1
COCCNC(=O)CSc1ccccc1C(=O)NC1CCCc2ccccc21 (centres unmarked)	5.31
CN(C)S(=O)(=O)c1cccc(NC(=O)c2ccc(S(=O)(=O)N3CCCC3)cc2)c1	-14
CCCN(/C=N/c1sc2c(c1C#N)CCCCC2)CCC	3.91
COC(=O)C1=C(c2cccc(C#N)c2)C[C@@H]2CC[C@H]1N2C(=O)NCCc1ccccc1	-38.7
COC(=O)c1ccc(Oc2nc(N3CCCCC3)nc(N3CCOCC3)n2)cc1	-17.5
COc1ccccc1NS(=O)(=O)c1ccc(C)c(C(N)=O)c1	-7.71
S=c1[nH]nc(-c2ccco2)n1/N=C/c1ccccn1	21

Structure (SMILES)	hERG current change (%, negative = inhibition) at 10uM [%]
CCOC(=O)C1CCN(c2cc3c(cc2NC(=O)c2ccccc2Cl)n(C)c(=O)n3C)CC1	-48.8
Cc1ccc2nc(NC(=O)CCNS(=O)(=O)c3ccc(Br)s3)sc2c1	-8.41
N#Cc1nc(COc2ccc(F)cc2)oc1N1CCCCC1	-14.3
Cc1ccc(-c2nn(-c3ccc(F)cc3)cc2C(=O)N(C)CC(=O)Nc2ccc(N3CCOCC3)cc2)cc1	6.37
CCCCN(CC)CCCNC(=O)c1cc2c(=O)[nH]c3ccccc3c2s1	-0.682
C/C=C/c1ccc(OCC(=O)N(C)CC(=O)Nc2ccc(F)cc2)c(OC)c1	-36.1
CCCCCCc1c(O)nc(SCCN(C)C)[nH]c1=O	5.91
O=C(NCc1ccc2c(c1)OCO2)c1ccc2c(c1)C(=O)N(Cc1cccnc1)C2=O	-5.14
S=C(NCc1cccnc1)Nc1ccc(Oc2ccc(Cl)cc2)cc1	-0.652
Nc1nc(SCC(=O)Nc2ccccc2)nc2nc3c(cc12)CCCC3	-1.5
CCSc1nc2sc3c(c2c(=O)n1-c1ccccc1)CCN(C)C3	2.93
CCCNC(=O)c1ccc(SC)cc1OC	-4.76
Cc1ccc(OCCCCn2ccnc2)c(Cl)c1	-35.3
CCOCc1nnc(NC(=O)COc2ccc3c(c2)OCO3)s1	4.87
Cc1nnc(N)nc1C	10
Cc1cccc(C)c1NC(=O)CN(C)C(=O)c1ccccc1SCC(=O)N1CCCC1	15.4
O=C(CN1CCN(c2ccc(F)cc2)CC1)N1CCOCC1	12.9
CCC/C(O)=C1\C(=O)CC(c2ccccc2)CC1=NC (centres unmarked)	2.11
C/C(=C\C(=O)c1ccc(Br)cc1)NNC(=O)c1ccccc1	5.37
COC(=O)CC(c1ccc(C(C)C)cc1)n1cccc1 (centres unmarked)	18.4
CC(C)Oc1ccc(Br)cc1C(=O)N/N=C/c1c[nH]c2ccccc12	16.2
Cc1ccc(C)c(NC(=O)CSc2ccc(S(=O)(=O)N3CCCC3)cn2)c1	1.52
CS(=O)(=O)N1CCN(CC(=O)NC2CCCCC2)CC1	14.4

Structure (SMILES)	hERG current change (%, negative = inhibition) at 10uM [%]
Cn1ccc(C(=O)N/N=C/c2c[nH]c3ccccc23)n1	26.1
O=C(NCCCNC(=O)c1cnccn1)c1ccc(Cl)cc1	-1.98
O=C(NCc1ccncc1)NC12CC3CC(CC(C3)C1)C2	-0.56
Cc1[nH]c(=O)[nH]c(=O)c1S(=O)(=O)N1CCCc2ccccc21	29.6
COC(=O)c1c(S(=O)(=O)N2CCOCC2)c(C)n(C)c1C	14.1
CC(=O)Nc1c(-c2ccccc2Cl)c(=O)c2ccccc2n1C	13
O=C(CN(CC1CCCO1)C(=O)CNS(=O)(=O)c1ccc(Cl)cc1)NCc1ccco1 (centres unmarked)	7.35
COc1ccc(C(C)=O)cc1CSCc1cc(C(C)=O)ccc1OC	18.4
COc1cc(NC(=O)C2CCCN(S(=O)(=O)c3ccc4c(c3)oc(=O)n4C)C2)cc(OC)c1 (centres unmarked)	-1.72
O=C(CN1CCCCC1)NC(=O)NC1CCCCC1	12.8
CCOc1ccc(OCCNC(=O)c2oc3ccccc3c2COC)cc1	-32.5
O=C(NC1CCCN(Cc2ccc(Cl)cc2)C1)c1cnc2ccccn2c1=O (centres unmarked)	-21.8
Cc1cc(C)nc(NC(=O)c2ccc(Cl)cc2)n1	3.77
Cc1cc(C)c(C)c(S(=O)(=O)NCc2ccc(C(=O)N3CCN(C)CC3)cc2)c1C	-4.7
C=CCn1c(CSc2nc3ccccc3s2)n[nH]c1=S	8.99
COc1ccc(/C=N/NC(=O)c2cccc(NC(=O)c3ccccc3)c2)c(C(=O)O)c1OC	6.8
O=C(CCC(=O)NC1CC1)Nc1nnc(C2CCCCC2)s1	3.56
O=C(/C=C/c1ccco1)OCC(=O)c1ccc(OC(F)F)cc1	-12.5
O=c1ccn(CCOc2ccc(Cl)cc2)c(=O)[nH]1	-7.96
COc1ccc(C(=O)NCC(=O)OCc2ccc(Br)cc2)cc1	0.553
O=C(N/N=C/c1ccc(-c2ccccc2C(=O)O)o1)c1cccs1	14.4
CCC(c1nnnn1Cc1ccc(F)cc1)N1CCN(C)CC1 (centres unmarked)	-1.38
Cc1ccc(-c2nc(CSCC(=O)NCCN3CCN(Cc4ccccc4)CC3)c(C)o2)cc1	-65.2

Structure (SMILES)	hERG current change (%, negative = inhibition) at 10uM [%]
O=C(Nc1ccccc1C(=O)NC(Cc1ccccc1)C(=O)O)c1ccco1 (centres unmarked)	4.93
Cc1ccc2oc(-c3ccc(NC(=O)c4ccncc4)cc3O)nc2c1	28.4
O=C(c1ccco1)N1CCN(Cc2cn[nH]c2-c2cccc3ccccc23)CC1	-29.1
O=C1c2ccccc2C(=O)N1CCOc1ccc(F)cc1	4.45
Cc1ccc2nc(-c3ccccc3)cc(C(=O)Nc3cccnc3)c2c1	2.22
COc1cc(C(=O)N(C)C2CCCCC2)ccc1OC1CCN(C(C)=O)CC1	9.42
Cc1cc(C)c(S(=O)(=O)N2CCN(S(=O)(=O)N3CCC(C)CC3)CC2)c(C)c1	20.8
COc1cc(/C=N/NC(=O)COc2ccc(-n3cnnn3)cc2)ccc1OCC(N)=O	17.3
Cc1ccc(C(=O)COc2cc(O)c3c(=O)cc(-c4ccccc4)oc3c2)cc1	24.6
CCN(CC)CC(=O)N1N=C(c2cccs2)CC1c1ccco1 (centres unmarked)	-39
Cc1nc2ccccc2n1/N=C/c1ccc([N+](=O)[O-])s1	-12.3
CCOc1cc(/C=N/NC(=O)CCc2n[nH]c(=O)[nH]c2=O)ccc1O	8.56
COc1ccc(C2CC(=O)C(C=NCC(C)C)=C(O)C2)cc1 (centres unmarked)	6.87
CC(C)NC(=O)c1c2c(nc3ccccc13)CCCC2	-2.93
COc1ccccc1NC(=S)N1CCCC1	2.06
Nc1nc2ccc(S(=O)(=O)c3ccc4nc(N)sc4c3)cc2s1	-8.96
COc1ccc(OCC(=O)Nc2ccc(S(=O)(=O)Nc3nc(C)cc(C)n3)cc2)cc1	-0.43
O=C(NNC(=O)c1cccs1)c1ccc2ccccc2c1	3.81
CCCCCCOc1ccc(C(=O)NCCCn2ccnc2)cc1	-41.7
O=C(CN(C(=O)CCC(=O)Nc1nccs1)c1cccc(F)c1)NCc1ccccc1	14.7
